These are yes or no findings as the source states them, for the method shown. In cells and extracts the contact can be indirect.

One experiment deals with T1, VN-Atg13 (yeast) (UniProt Q06628).
T1 sequence: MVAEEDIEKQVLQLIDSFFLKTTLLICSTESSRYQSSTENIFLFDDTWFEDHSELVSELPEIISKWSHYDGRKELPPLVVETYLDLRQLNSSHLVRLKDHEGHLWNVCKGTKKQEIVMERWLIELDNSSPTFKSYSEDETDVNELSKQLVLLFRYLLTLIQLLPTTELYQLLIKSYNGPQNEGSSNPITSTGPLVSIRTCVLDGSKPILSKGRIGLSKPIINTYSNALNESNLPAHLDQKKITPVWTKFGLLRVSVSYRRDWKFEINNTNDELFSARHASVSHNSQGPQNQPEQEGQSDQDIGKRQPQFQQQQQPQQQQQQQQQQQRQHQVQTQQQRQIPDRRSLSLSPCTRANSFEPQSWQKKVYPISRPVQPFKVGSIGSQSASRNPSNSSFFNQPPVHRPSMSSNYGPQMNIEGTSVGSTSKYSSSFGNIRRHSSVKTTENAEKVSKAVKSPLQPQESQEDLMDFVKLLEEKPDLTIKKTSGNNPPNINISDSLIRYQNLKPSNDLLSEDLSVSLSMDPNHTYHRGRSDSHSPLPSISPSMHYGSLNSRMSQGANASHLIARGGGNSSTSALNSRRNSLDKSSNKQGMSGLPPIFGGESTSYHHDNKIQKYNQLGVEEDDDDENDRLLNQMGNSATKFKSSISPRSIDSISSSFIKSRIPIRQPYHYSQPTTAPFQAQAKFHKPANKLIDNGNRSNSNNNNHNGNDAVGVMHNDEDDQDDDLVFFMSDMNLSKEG
Description: split reporter; BiFC with the two halves of Venus: pVC-SNF7 and pVN-ATGX cotransformed in yeast cells, expression induced in SD-Ura-His-Met for 1.5 h, starved in SD-N for 30 min, YFP dots seen by live-cell fluorescence microscopy; Atg17-Snf7 also tested in vps9Δ, vps21Δ, vps8Δ, pep12Δ, ypt7Δ and vps39Δ cells (dependent on the Rab5 module, not on Ypt7 or Vps39).

A further experiment addresses T2, VN-Atg1 (yeast) (UniProt P53104).
T2 sequence: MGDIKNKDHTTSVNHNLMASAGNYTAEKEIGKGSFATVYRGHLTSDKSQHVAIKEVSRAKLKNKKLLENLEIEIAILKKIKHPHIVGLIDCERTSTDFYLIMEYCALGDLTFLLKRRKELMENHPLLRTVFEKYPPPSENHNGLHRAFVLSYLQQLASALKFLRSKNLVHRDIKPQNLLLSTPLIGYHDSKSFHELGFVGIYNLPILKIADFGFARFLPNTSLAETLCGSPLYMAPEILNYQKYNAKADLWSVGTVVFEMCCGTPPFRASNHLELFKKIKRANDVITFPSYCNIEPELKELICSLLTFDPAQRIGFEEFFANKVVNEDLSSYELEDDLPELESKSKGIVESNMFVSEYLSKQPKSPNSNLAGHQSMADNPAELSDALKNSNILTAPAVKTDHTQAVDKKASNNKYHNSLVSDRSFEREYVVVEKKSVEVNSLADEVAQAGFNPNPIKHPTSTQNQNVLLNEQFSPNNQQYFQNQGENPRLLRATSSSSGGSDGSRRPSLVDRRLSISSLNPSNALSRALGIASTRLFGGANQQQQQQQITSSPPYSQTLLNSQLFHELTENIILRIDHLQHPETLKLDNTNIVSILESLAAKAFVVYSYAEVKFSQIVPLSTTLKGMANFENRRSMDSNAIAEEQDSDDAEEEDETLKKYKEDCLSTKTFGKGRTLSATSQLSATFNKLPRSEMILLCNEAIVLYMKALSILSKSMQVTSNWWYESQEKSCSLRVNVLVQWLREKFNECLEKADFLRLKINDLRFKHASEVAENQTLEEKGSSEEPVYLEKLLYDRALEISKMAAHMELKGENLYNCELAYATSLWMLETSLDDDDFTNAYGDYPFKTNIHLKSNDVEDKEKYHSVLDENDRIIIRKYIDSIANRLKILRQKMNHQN
The description is as above.

B1: VC-Snf7 (protein, UniProt P39929 1-240)
chain: MWSSLFGWTSSNAKNKESPTKAIVRLREHINLLSKKQSHLRTQITNQENEARIFLTKGNKVMAKNALKKKKTIEQLLSKVEGTMESMEQQLFSIESANLNLETMRAMQEGAKAMKTIHSGLDIDKVDETMDEIREQVELGDEISDAISRPLITGANEVDEDELDEELDMLAQENANQETSKIVNNNVNAAPISENKVSLPSVPSNKIKQSENSVKDGEEEEDEEDEDEKALRELQAEMGL
In the case of B1, the binding result with VN-Atg13 (yeast) and with VN-Atg1 (yeast) was “no binding” each time.

The record behind these values is paper PMC6548130.
